± gives the standard deviation. The entries are a selection whose mix differs from that of the whole data set.
Test system: MIWI (PIWIL1) piRISC loaded with L1MC piRNA (30 nt)
Experiment: pre-steady-state target cleavage rate (min^-1); MIWI and MILI are mouse PIWI proteins and EfPiwi is from a freshwater sponge; tags in brackets are library labels; higher = faster piRNA-guided slicing of the target
Conditions: guide: L1MC piRNA 5'p-UAACUAAAUACUAUGCAAGCUGUAGGUCCU
Summary of the method: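 Active affinity-purified piRISC carrying one synthetic guide (1 nM) was mixed with a transcribed, DNA-blocked target RNA library […] in HEPES–potassium acetate buffer at 33 °C for 0–8 or 0–960 min, with or without 500 nM GTSF1 partner protein. Uncleaved targets were then sequenced and normalised to depth and to weakly complementary targets. Three trials were pooled, and k3 was capped at 0.0001 min^-1. A burst-and-steady-state fit was applied to obtain the pre-steady-state cleavage rate.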

[1] = auxiliary factor: 500 nM mouse GTSF1
[2] = auxiliary factor: none (no GTSF1)
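Further: 1 nM active piRISC with 0.1 nM target library at 33 °C single turnover.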

Sequence	pre-steady-state target cleavage rate [1]	pre-steady-state target cleavage rate [2]
UCCUGGAUGUCGAACGUAUGAUUUUAGUUA	< 0.0001	–
UCGACCUACAGCUUGCAAUCUAUUUAGUAA	0.192 ± 0.031	–
UCCUGGAUCAGGUUGCAUAGUAUUUUCAAA	0.0415 ± 0.014	–
UCCUGGAUGUCGAACGAUACAUUUUAGUUA	–	< 0.0001
UCCUCCUACAGCAUGCAUAGUAUUUUCAAA	0.325 ± 0.049	–
UCCUGGAUCAGCUUGCAUUCUAUUUACAAA	0.00476 ± 0.0046	–
UCCUGGAUCAGCUUGCUUAGUAUUUUCAAA	0.024 ± 0.0088	–
UCGACCUACAGCAACCAUAGUAUUUAGUAA	0.13 ± 0.028	–
UCCUCCUACAGCUACCAUAGUAUUUAGAAA	0.0705 ± 0.023	–
UGGACCUACAGCUUGCACUAGUAUUUAGUUA	0.00887 ± 0.0051	–
UCGACCUACAGCUUGCAUAGUUAUUAGAAA	0.154 ± 0.039	–
UGGACCUACUCGUUGCAUAGUAUUUUCAAA	0.0138 ± 0.0032	–
UCCUGGAUGUCGAACCAUAGUAAAAUCAAA [g9:g15:cont:t1A]	–	< 0.0001
UCCUGGAUGUCGAUGCAUAGUAUUUUGUUA	0.00674 ± 0.0031	–
UCCUGGAUGUCGAACCUUACUAUUUAGUUA	< 0.0001	–
UCCUCCUACAGCUACGAUAGUAUUUAGUUA	0.108 ± 0.017	–
UCCUGGUACAGGAAGCAUAGUAUUUAGUAA	0.0592 ± 0.011	–
UCCUCCUACAGCUUGCAUACAUUUUAGUAA	0.0053 ± 0.0046	–
UCCUGGAUGUCGAUGCAUAGUAUUAAGUUA	0.0045 ± 0.004	–
UCCUGGAUGUCGAACGAAAGUAUUUACUUA	–	< 0.0001
AGGUCCUACAGCUUGCAAAGUAUUUAGUUA	–	0.0532 ± 0.01
UCCUGGAUGUCGAACGUAAGUAUUUACGUUA	–	< 0.0001
UCCUGGAUGUCGAACGUAAGUAUUUGGUUA	–	< 0.0001
UCCUGGAUGUGCUUGGUUAGUAUUUAGUAA	–	0.00345 ± 0.0031
UCCUGGAUGUCGAUCCAAAGUAUUUAGUUA	–	< 0.0001
UCCUGGAUGUCGAACCAUAGUAUUCAGUUA	–	< 0.0001
UCCUGGAUGUCGAACGAUAUAUUUAGUUA	–	< 0.0001

Sequence	pre-steady-state target cleavage rate [1]	pre-steady-state target cleavage rate [2]
UCCUGGAUGUCGAACGAUAGUAUUUACAAA	–	< 0.0001
UCCUGGAUGUCGAACCAUAGUAUAUAGUUA	–	< 0.0001
UCGACCUACAGCUUGCAUGGUAUUUAGUUA	–	0.0512 ± 0.011
UCCACGUACAGCUUGCAUAGUAUUUUCAAA	0.253 ± 0.033	–
UCCUGGAUCAGCUUCCAUAGUAUUUUGUUA	0.0116 ± 0.0052	–
UCCUGGAUGUGCUUCCAUAGUAUUUAGUAA	0.00555 ± 0.0037	–
AGGACCUACAGCUUGCAUACGUAUUUAGUUA	0.208 ± 0.078	–
AGGACCUACAGCUUGCAUAGUAUUAUCUAA	0.404 ± 0.066	–
UCCACCUACAGCUUCGAUAGUAUUUACAAA	0.0216 ± 0.0089	–
UCGACCUACAGCUUGGUAAGUAUUUAGUUA	0.0619 ± 0.011	–
UCCUGGAUGAGCUAGCAUAGUAUUUACAAA	0.036 ± 0.012	–
UCCUGGAACUCCUUGCAUAGUAUUUUCAAA	0.0385 ± 0.0072	–
UCCUGGAUGUGCUUGCAUAGUAUUAUCUUA	0.00518 ± 0.0044	–
UCCUGGUACACCUUCCAUAGUAUUUAGUUA	0.00657 ± 0.0054	–
UCCUGCUACAGCUUGCAAAGUAUUUACAAA	0.192 ± 0.027	–
UGGACCUACAGGAAGCAUAGUAUUUAGAAA	0.198 ± 0.035	–
UGUGACCUACAGCUUGCAUAGUAUUUAGUUA	–	0.0959 ± 0.018
UCCACCUACAGCAACCAUAGUAUUUAGUUA	0.147 ± 0.023	–
UCCUGGAUGUCGAACCAUAGUAUUUAGCUA	–	< 0.0001
UCCUGGUACAGCUUGCAUAGUAUUUAGCUA	0.00692 ± 0.0039	–
UCCUGGAUGAGGUUGGAUAGUAUUUAGUUA	0.124 ± 0.02	–
UGGACCUACAGGUUGCAUAGUAUUUUCAAA	0.123 ± 0.019	–
UCGACCUACAGCUUGCUAAGUAUUUACAAA	0.0259 ± 0.0099	–
UCCUGCUACAGCUAGCAUAGUAUUUUCAAA	0.0744 ± 0.023	–
UCCUCCUACCGCUUGCAUAGUAUUUAGUUA	–	0.0565 ± 0.0099
UCCUCCUACAGCUUGCAUAGUAAUUAGAAA	0.33 ± 0.055	–
UGGACCUACAGCAAGCAUAGUAUUUAGAAA	0.271 ± 0.031	–
